PubChem BioAssay AID488969 (Vanderbilt High Throughput Screening Facility, 2010)
Whole data set: some 110,000 compounds, median “z-score” near -0.1, cut for the highest 2% near 2. Some of the results follow. Active and inactive are the calls of the source.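 How the source made its calls: active means z-score in the third read window above 3 or below -3; inactive means the rest.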

These compounds were tested against Metabotropic glutamate receptor 8 (Rattus norvegicus) (UniProt P70579) (assay: mGluR8 Gi/Go-coupled signaling modulation – cell-based, rat, thallium flux, HTS, primary screen (AID 488969)). Details: HEK293 rat mGluR8, GIRK (G protein-gated inwardly rectifying potassium channel) thallium flux, FluoZin2; at 10 µM; stronger effect = higher value; submaximal glutamate (EC20) added with thallium.
Chain of UniProt P70579 (P70579 whole entry, looked up): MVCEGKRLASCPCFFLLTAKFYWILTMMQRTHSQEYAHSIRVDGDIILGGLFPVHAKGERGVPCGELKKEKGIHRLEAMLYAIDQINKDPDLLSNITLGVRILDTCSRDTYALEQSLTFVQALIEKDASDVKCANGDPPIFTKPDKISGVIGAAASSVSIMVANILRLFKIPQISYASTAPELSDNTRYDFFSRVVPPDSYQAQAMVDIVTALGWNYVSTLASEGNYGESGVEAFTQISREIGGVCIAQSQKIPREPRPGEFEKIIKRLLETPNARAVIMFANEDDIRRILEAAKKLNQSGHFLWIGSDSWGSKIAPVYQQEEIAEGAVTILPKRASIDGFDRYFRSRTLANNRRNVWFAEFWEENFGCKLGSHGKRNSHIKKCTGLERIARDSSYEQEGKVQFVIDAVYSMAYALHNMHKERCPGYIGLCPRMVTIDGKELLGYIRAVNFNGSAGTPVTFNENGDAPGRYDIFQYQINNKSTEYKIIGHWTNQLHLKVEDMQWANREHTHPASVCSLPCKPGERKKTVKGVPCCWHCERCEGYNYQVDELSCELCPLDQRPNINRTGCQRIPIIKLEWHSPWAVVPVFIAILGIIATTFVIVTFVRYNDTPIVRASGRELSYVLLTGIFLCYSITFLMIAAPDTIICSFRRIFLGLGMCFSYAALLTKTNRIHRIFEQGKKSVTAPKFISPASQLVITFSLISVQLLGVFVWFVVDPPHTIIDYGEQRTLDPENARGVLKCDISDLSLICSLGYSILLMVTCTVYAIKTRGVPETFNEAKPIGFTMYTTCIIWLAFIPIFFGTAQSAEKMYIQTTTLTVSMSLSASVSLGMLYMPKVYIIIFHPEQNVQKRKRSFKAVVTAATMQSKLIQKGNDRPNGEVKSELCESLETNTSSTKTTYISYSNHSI
`Cc1ccc(-c2nnn3c2nc(NCCc2ccc(S(N)(=O)=O)cc2)c2ccccc23)cc1` gave a z-score of -0.0825. `Cc1ccc(C)c(NC(=O)CNS(=O)(=O)c2ccccc2)c1` was tested, and the z-score was -0.144. For `Cc1ccc(N2C(=O)C3C(C(=O)c4ccccc4)=NN(c4ccccc4)C3C2=O)cc1` (stereo unspecified), the z-score was -1.78. Work on `CCOc1ccc(NC(=O)CCN2CCN(c3ccccc3F)CC2)cc1` yielded a z-score of -0.129. Work on `CS(=O)(=O)N(CC(=O)N1CCc2ccccc2C1)Cc1ccc(Cl)cc1` yielded a z-score of 0.509. Work on `Cc1ccc(C)n1NC(=O)c1ccccc1` yielded a z-score of 0.00747. Work on `COc1ccc2[nH]c(=O)c(CN(C(C)=O)C3CCCCC3)cc2c1` yielded a z-score of -0.00398. Compound `Cc1nc(N2CCCCC2)c2sc(=S)n(C)c2n1` has a z-score of 0.0149. Compound `CCOC(=O)c1sc2nccc(N(C)C)c2c1N=CNOC` has a z-score of -0.245. In the case of `O=C(NCC1CCN(c2ccc(S(=O)(=O)N3CCOCC3)cc2)CC1)c1ccc(Cl)cc1`, the z-score is reported as -0.78. Work on `COc1ccc2nc(NC(=O)CCc3nc(-c4ccccc4F)no3)sc2c1` yielded a z-score of -0.0808. In the case of `CCOC(=O)c1c(NC(=O)c2nn(CC)cc2Br)sc(C)c1C`, the z-score is reported as -0.0607. For `Cc1cc(=O)n2[nH]c(-c3ccc(F)cc3)cc2n1`, the z-score was -0.25. For `Cc1ccccc1OCCN1C(=O)NC2(CCCc3ccccc32)C1=O` (stereo unspecified), the z-score was 0.127. For `COc1cc(Cc2nc3ccc(S(=O)(=O)N4CCOCC4)cc3[nH]2)cc(OC)c1OC`, the z-score was -0.253. `Cc1ccc(Cl)cc1Nc1nc(-c2sc(NC(=O)c3ccccc3)nc2C)cs1` was tested, and the z-score was 0.131. Compound `CCOC(=O)C(Cc1ccccc1)NC(=O)CCc1c(C)nc2nc(C)nn2c1C` (stereo unspecified) has a z-score of -0.164. `CCOC(=O)C1CCN(c2c(NC3CCCc4ccccc43)c(=O)c2=O)CC1` (stereo unspecified) was tested, and the z-score was -0.182. With `O=C(CSc1cccc2cccnc12)OCC(=O)c1ccc(Br)cc1` the z-score was -0.113. Compound `COCc1cc(C)nc(NCCc2ccccc2)c1C#N` has a z-score of -0.235. With `CCC(Sc1ncccn1)C(=O)Nc1cc(C)on1` (stereo unspecified) the z-score was -0.0616. Work on `CCCNCc1cc(Cl)c(OCC)c(Cl)c1` yielded a z-score of 0.467. Work on `CC(C)CCNC(=O)C(NS(=O)(=O)c1ccc2c(c1)c(=O)n(C)c(=O)n2C)c1ccccc1` (stereo unspecified) yielded a z-score of -0.127. With `COC(=O)c1[nH]c2ccc(C)cc2c1NC(=O)NC1CCCCC1` the z-score was -0.116. `Cc1cc(/C=N\NC(=O)CC(=O)NC2CCCCC2)c(C)n1-c1ccc(Cl)cc1` gave a z-score of 1.21. `CCOc1ccccc1C(=O)Nc1nncs1` was tested, and the z-score was -0.106. `Cc1ccc(NC(=O)N2C(=O)C3(OCCO3)c3ccccc32)cc1` showed a z-score of -0.237. Work on `Cc1cc(NC(=O)CSCC(=O)N(c2ccc(F)cc2)C(C(=O)NC2CCCCC2)c2ccc(O)c(O)c2)no1` (stereo unspecified) yielded a z-score of -0.0976. In the case of `O=C(c1ccc(F)cc1)N1CCN(c2ncccn2)CC1`, the z-score is reported as -0.204. `Cc1ccc(-n2c(=O)c3sccc3n(Cc3cc(=O)n4cc(Cl)ccc4n3)c2=O)cc1F` was tested, and the z-score was -1.59. With `O=C(O)CCC(=O)NCc1cn(-c2ccccc2)nc1-c1cccc(Br)c1` the z-score was -1.36. With `O=C(NCCN1CCOCC1)c1ccc(F)cc1` the z-score was 0.0457. `CCOc1cc(C(=S)N2CCN(C)CC2)ccc1OCC(=O)N1CCOCC1` was tested, and the z-score was -0.0898. For `CCCCCCc1nc2ccccc2c(=O)n1NC(=O)c1c(O)c2cccc3c2n(c1=O)CCC3`, the z-score was 0.688. `C=CCOC(=O)C1C(=O)CC(C)(O)C(C(=O)OCC=C)C1c1ccc(OCC)cc1` (stereo unspecified) was tested, and the z-score was -0.0991. For `O=C(CN1CCOc2ccccc21)NCc1ccco1`, the z-score was -0.167. Work on `Cc1ccccc1N1CCN(S(=O)(=O)c2ccccc2)CC1` yielded a z-score of -0.44. For `COC(=O)c1cc2oc(C)cc2n1CC(=O)N(C)c1ccccc1`, the z-score was 0.244. Compound `CCN(CC)S(=O)(=O)c1ccc(NC(=O)c2ccccc2N(C)S(C)(=O)=O)cc1` has a z-score of -0.192. Work on `CC1(C(=O)O)CCC(C(=O)NC2CCCCCC2)C1(C)C` (stereo unspecified) yielded a z-score of -0.335. In the case of `CCn1c(=O)cc(C(=O)OC)sc1=Nc1ccc(F)c(F)c1`, the z-score is reported as -0.202. For `N#CC(C(=O)NCCc1ccccc1)c1nc2ccccc2nc1N1CCOCC1` (stereo unspecified), the z-score was 0.253. `CCc1nnc(NC(=O)C2Cc3ccccc3CN2S(=O)(=O)c2c(C)c(C)cc(C)c2C)s1` (stereo unspecified) showed a z-score of -0.206. With `Nc1c(C(=O)Nc2ccc(Cl)c(Cl)c2)sc2nc(-c3cccnc3)ccc12` the z-score was -0.44. Work on `O=Cc1c(Sc2ccccc2)nc2ccccn2c1=O` yielded a z-score of -0.861. `Cc1cnc(C(=O)Nc2ccccc2C(=O)N2CCOCC2)cn1` gave a z-score of 0.343. With `O=C(Nc1cccc(Cl)c1Cl)c1ccc(-c2ccccc2)cc1` the z-score was 0.219. `Cc1ccc(O)c(/C=N/NC(=O)c2[nH]ncc2Br)c1` showed a z-score of -0.036. With `COc1ccc(-n2c(=S)[nH]c3c(oc4ccccc43)c2=O)cc1` the z-score was 0.609. In the case of `O=C1NC2C(NC(=O)N2C2CCCCC2)N1C1CCCCC1` (stereo unspecified), the z-score is reported as -0.902. `O=C(Nc1nnc(-c2ccccc2Cl)o1)c1ccco1` gave a z-score of 0.121. Compound `COc1cc(S(=O)(=O)N(Cc2ccccc2)Cc2ccccn2)ccc1-n1cnnn1` has a z-score of -0.0596. In the case of `CCOc1cc(S(=O)(=O)NC2CCCCCC2)ccc1F`, the z-score is reported as 0.581. With `CC1(C)C(c2cccs2)=[N+]([O-])C2(CCCCC/C2=N\NC(N)=S)N1O` (stereo unspecified) the z-score was 0.131. With `Cc1ccc(Cn2c(CN3CC(C)OC(C)C3)nc3c2c(=O)[nH]c(=O)n3C)cc1` (stereo unspecified) the z-score was 0.0226. Work on `CC(C)NCCOCCOc1ccccc1F` yielded a z-score of 0.394. `O=C(c1cc2ccccc2c(=O)o1)N1CCc2ccccc2C1` was tested, and the z-score was -0.143. In the case of `C/C(CC(=O)Nc1ccc(N(C)C)cc1)=N\NC(=O)c1ccccn1`, the z-score is reported as -0.921. For `CSc1ccc(/C=N/NC(=O)COc2ccc(Br)cc2Cl)cc1`, the z-score was -0.214. `Cc1nc(Cl)c2oc3ccccc3c2n1` showed a z-score of -1.14. For `O=C1CCC(=O)N1c1ccccc1-c1ccccc1`, the z-score was 0.624. `COc1ccccc1-c1nnc(SCC(=O)NC2CCS(=O)(=O)C2)n1CCc1ccccc1` (stereo unspecified) was tested, and the z-score was 0.0681. `COc1cc2c(cc1NC(=O)CSc1nnc(Cc3cccs3)n1C)oc1ccccc12` was tested, and the z-score was -0.294. For `O=C(Nc1ccc2nn(-c3ccccc3)nc2c1)c1ccco1`, the z-score was -0.129. For `CC(C)CCOc1ccc(NC(=O)C2OC3OC(C)(C)OC3C3OC(C)(C)OC23)cc1` (stereo unspecified), the z-score was -0.118. Compound `CC1CCCCC1NC(=O)C1CCN(C(=O)NC2CCCCC2)CC1` (stereo unspecified) has a z-score of -0.407. For `Cn1nc(C(=O)NC(C)(C)C)c2ccccc21`, the z-score was -0.198. `Cc1cc(C)c(C#N)c(OCC(=O)c2ccc(Br)cc2)n1` showed a z-score of -0.91. In the case of `CC(C)CNC(=O)NC(=O)COC(=O)c1ccccc1Sc1ccc(C(F)(F)F)cc1[N+](=O)[O-]`, the z-score is reported as -0.438. `Oc1ccccc1Oc1ncc(Br)c(N2CCOCC2)n1` gave a z-score of -1.71. Work on `CCCCNC(=O)C(=O)N/N=C/c1ccc(OCC(=O)Nc2cccc(OC)c2)c(OC)c1` yielded a z-score of -0.318. For `CN(C)c1ccc(/C=N\NC(=O)c2csnn2)cc1`, the z-score was -0.0845. With `COc1cccc(OC)c1OCCCOc1c(OC)cccc1OC` the z-score was -0.355. `COc1ccc2[nH]cc(C(=O)CN3CCCCC3C)c2c1` (stereo unspecified) showed a z-score of 0.245. For `CN(C)CCNC(=S)Nc1ccc(Cl)cc1`, the z-score was 0.352. For `CCOc1ccc(/C=C2\SC(=O)N(CCNC(=O)C3COc4ccccc4O3)C2=O)cc1OC` (stereo unspecified), the z-score was -0.337. For `O=C(NCCCN1CCCC1)c1ccc(CS(=O)(=O)c2ccc(Br)cc2)o1`, the z-score was 0.0223. `O=C(Nc1ccccc1N1CCCCC1)c1ccc(F)cc1` showed a z-score of -0.361. Compound `O=C(CCC(=O)OCC(=O)c1ccc([N+](=O)[O-])cc1)NC1CCCCC1` has a z-score of 0.265. With `Cc1ccc(/C=N/Nc2nc(Cl)c(Cl)cc2Cl)s1` the z-score was active: 3.84. `O=C(COc1ccccc1)NCc1ccccc1` was tested, and the z-score was -0.312. `CCOC(=O)C1=C(C)NC(=O)NC1c1cc(C)sc1C` (stereo unspecified) was tested, and the z-score was -0.568. `Cc1ccccc1OCC(=O)Nc1ccccc1N1CCOCC1` was tested, and the z-score was 0.605. In the case of `COc1ccc(Nc2nc(N)nc(CSC(=S)N3CCC(C)CC3)n2)cc1`, the z-score is reported as -0.0611. Compound `C1=C(CCNC2=NCCCCC2)CCCC1` has a z-score of -1.17. Compound `CC1CCCC(C)N1C(=O)c1cccc2c1-c1ccccc1/C2=N/O` (stereo unspecified) has a z-score of 0.252. Work on `COc1ccc(C2=NN(C(C#N)c3ccc(OC)cc3)C(c3ccccc3)C2)cc1` (stereo unspecified) yielded a z-score of 0.17. `CCN1CCCC1CNCc1cc(OC)c(OC)c(OC)c1` (stereo unspecified) gave a z-score of -0.258. With `CCOC(=O)CCS(=O)(=O)c1ccc(-c2ccc(S(=O)(=O)CCC(=O)OCC)cc2)cc1` the z-score was 0.172. `Cc1nc2ccccc2c(=O)[nH]1` gave a z-score of -0.21. `Cc1cc(=O)oc2cc(OCC(=O)N/N=C/c3ccccc3[N+](=O)[O-])ccc12` was tested, and the z-score was -0.0875. `COc1ccc(-c2cc(C(=O)N3CCN(c4ccccc4)CC3)c3ccccc3n2)cc1OC` gave a z-score of -0.469. Compound `N#CC1=C(N)N2C(=C(C#N)C1c1cccc(Br)c1)Nc1ccccc12` (stereo unspecified) has a z-score of -0.247. `COc1cc(OC)c(C2C(C(=O)Nc3ccc(C)cc3C)=C(C)Nc3ncnn32)cc1OC` (stereo unspecified) was tested, and the z-score was -0.313. `O=C(NCc1cccc(Cl)c1)c1ccco1` showed a z-score of 0.49. In the case of `O=C(CSc1nnc(NC(=O)C2CCC2)s1)Nc1ccc(N2CCOCC2)cc1`, the z-score is reported as -0.322. Compound `Cc1ccc(CNn2cnnc2SCC(=O)NC(C)(C)C)cc1` has a z-score of 0.231. With `O=C1NC(c2ccc3c(c2)OCO3)Nc2ccccc21` (stereo unspecified) the z-score was 0.0106. `O=C(NCc1cccs1)C1CCCN1S(=O)(=O)c1ccccc1F` (stereo unspecified) gave a z-score of 0.638. For `CC(C)OCCCNc1nc2c(c(=O)n(Cc3ccccc3F)c(=O)n2C)n1C`, the z-score was -0.455. `COc1cc(/C=N/NC(=O)c2cc3ccccc3cc2O)ccc1OCCN1CCCCC1` was tested, and the z-score was -0.0725. Compound `O=C(OCCN1CCOCC1)c1ccc2c(c1)OCCO2` has a z-score of 0.587. For `O=C(c1ccccc1)N1CCN(c2ccc(Cl)cc2)CC1`, the z-score was -0.0255. With `COc1cc(NS(=O)(=O)c2ccc(NC(=S)NC(=O)CC(C)C)cc2)nc(OC)n1` the z-score was 0.0151. In the case of `Cc1ccc(S(=O)(=O)N(C)/C(=N/S(=O)(=O)c2ccccc2)c2ccccc2)cc1`, the z-score is reported as -0.162. `Cc1nn2c(N3CCCC3)cc(C(C)C)nc2c1-c1ccccc1` showed a z-score of -0.954. Work on `Cc1ccc(C2c3c(oc4ccccc4c3=O)C(=O)N2CCCN2CCOCC2)o1` (stereo unspecified) yielded a z-score of 0.634. In the case of `COc1cccc(-c2nc(CS(=O)(=O)CC(=O)N3CCN(C)CC3)c(C)o2)c1`, the z-score is reported as 0.772. `CC(C)Cn1c(-c2cccs2)nc2ccccc21` showed a z-score of -0.0473. For `NC(=O)c1ccc[n+](Cc2cccc3ccccc23)c1`, the z-score was 0.0662. Compound `CC1CCCCN1CCNC(=O)C1CCN(S(=O)(=O)c2cccc3cccnc23)CC1` (stereo unspecified) has a z-score of 0.0318.
